Results: PubChem BioAssay AID1159614 (National Center for Advancing Translational Sciences (NCATS), 2016)
The campaign covered roughly 45,000 compounds. About 65 (0.1%) were called active. The call rests on the fitted dose curve; in most records, active means well fitted activation curve with a large enough effect; inconclusive means small, poorly fitted or top-dose-only effect; inactive means no such curve, though single readings can be large or run the other way. The list shows a part of the results.

target: Galactocerebrosidase (Homo sapiens) (UniProt P54803); test: A Novel Cell-Based Assay to Identify Small Molecules for B -Galactocerebrosidase; conditions: 145M-Twi-hGALC-G270D cells, HMU-beta-Gal fluorescence, 48 h; series mostly up to 57.5 µM; activation: at the top concentration; further: 0% is about no effect; nearly all actives have a fitted effect of over 65% in size
Chain of UniProt P54803 (P54803 whole entry, looked up): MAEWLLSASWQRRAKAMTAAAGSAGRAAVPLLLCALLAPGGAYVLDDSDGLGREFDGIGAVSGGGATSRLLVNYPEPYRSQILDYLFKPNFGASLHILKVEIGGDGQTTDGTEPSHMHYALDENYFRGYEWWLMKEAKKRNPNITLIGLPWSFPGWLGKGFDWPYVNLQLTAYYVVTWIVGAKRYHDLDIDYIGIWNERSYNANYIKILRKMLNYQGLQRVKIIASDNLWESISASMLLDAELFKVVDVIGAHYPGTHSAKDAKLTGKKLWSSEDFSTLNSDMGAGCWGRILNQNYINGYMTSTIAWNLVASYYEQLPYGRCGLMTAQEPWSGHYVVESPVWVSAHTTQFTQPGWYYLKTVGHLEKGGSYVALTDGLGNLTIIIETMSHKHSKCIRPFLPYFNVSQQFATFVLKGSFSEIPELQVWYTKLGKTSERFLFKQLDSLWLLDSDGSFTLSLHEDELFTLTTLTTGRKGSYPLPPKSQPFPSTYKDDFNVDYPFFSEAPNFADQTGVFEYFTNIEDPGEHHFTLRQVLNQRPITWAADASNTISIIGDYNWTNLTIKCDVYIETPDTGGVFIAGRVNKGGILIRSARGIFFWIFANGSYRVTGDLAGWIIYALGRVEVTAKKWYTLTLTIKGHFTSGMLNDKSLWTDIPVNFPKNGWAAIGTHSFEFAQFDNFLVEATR
How it was run: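 qHTS, 1536-well; 145M-Twi-hGALC-G270D cells (WT line also made) in DMEM/F12 + 10% FBS; compound incubation on live cells; HMU-β-gal 0.1 mM final, pH 5.2, NaTC; carbonate stop; fluorescence increase = enhanced residual activity.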

activation, inactive:
COc1cccc(C(=O)Nc2nnc(S(=O)(=O)N3CCCC3)s2)c1 -3.06%
CCOc1ccc(CCNC(=O)c2nn(C)c3c2CSc2ccccc2-3)cc1 2.83%
O=C(O)Cc1ccccc1Oc1ccc(Cl)cc1Cl -14.9%
COc1cc(OC)cc(OC)c1 -18.1%
Cc1ccc(Nc2c(C(C)C)c(C)c(C#N)c3nc4ccccc4n23)cc1 -13.3%
CCCNC(=O)CN1C(=O)CSc2ccc(S(=O)(=O)N3CCC(C)CC3)cc21 -7.95%
CCOc1ccc(NC(=O)c2cc(S(=O)(=O)NC3CCCCCC3)ccc2F)cc1 -4.07%
COc1ccc2c(c1)CCc1c(C(=O)Nc3c(C)nn(Cc4ccccc4)c3C)noc1-2 -9.26%
Cc1ccccc1-c1noc(-c2ccc(NCc3ccco3)c([N+](=O)[O-])c2)n1 -16.5%
CCC(C)NC(=O)CCCc1nnc2n(CC(C)C)c(=O)c3sccc3n12 (configuration not stated) -20.4%
CCN(CC)C(=O)C1CCN(S(=O)(=O)c2c(C)noc2/C=C/c2cccc(OC)c2)CC1 -12%
CCOc1ccc(C2CC(=O)c3c([nH]c(C(=O)OCC4CCCCC4)c3C)C2)cc1 (configuration not stated) -17.9%
Cc1ccc(S(=O)(=O)C(CNC(=O)C(=O)NCCc2ccccc2)c2cccs2)cc1 (configuration not stated) -2.05%
O=c1oc2ccccc2c(N2CCN(c3ccccc3F)CC2)c1CN1CCCC1 -8.87%
COCCCNC(=O)c1nn(-c2ccc(C)cc2)nc1CO 0.728%
COc1ccc2c(Sc3ccc(C)cc3)c(C(=O)NC(C)C)[nH]c2c1 -31.7%
CCOc1ccccc1NC(=O)CSc1nccn1-c1cccc(C)c1 -39.8%
CCOc1ccc(-n2c(=O)c3c(C)c(C)sc3n(CC(=O)NCCc3ccccc3)c2=O)cc1 -6.8%
O=C(CN1C(=O)CSc2ccc(S(=O)(=O)N3CCCC3)cc21)Nc1cccc(Cl)c1 -24.5%
Cc1cccc(CNC(=O)Cn2ccc3cc(S(=O)(=O)N4CCCCCC4)ccc32)c1 -12%
COc1cccc(NC(=O)C(Cc2ccccc2)NS(=O)(=O)c2ccc3c(c2)c(=O)n(C)c(=O)n3C)c1 (configuration not stated) -4.35%
CCCc1cc(=O)oc2cc(C)c3c(-c4ccccc4)coc3c12 -22.9%
CC(C)c1ccc(OCC(=O)N(Cc2cccs2)C2CCS(=O)(=O)C2)cc1 (configuration not stated) -6.43%
COc1ccc(CNC(=O)CCc2c(C)c3cc4c(C)c(C)oc4cc3oc2=O)cc1OC 6.34%
Cc1cccc(C2CC(=O)Nc3cc4c(cc32)OCO4)c1 (configuration not stated) -4.51%
CCc1nc2nc(C)cc(Nc3cccc(C)c3C)n2n1 -17.1%
Cc1cc2ccccc2n1CCNC(=O)c1ccc(Br)cc1 -16.4%
CCc1ccc(NC(=O)CN2C(=O)C3(SCC(=O)N3c3ccc(F)c(F)c3)c3ccccc32)cc1 (configuration not stated) -24.3%
CSc1ccc(-c2nnc(NC(=O)c3ccc4c(c3)OCCO4)o2)cc1 -17.5%
Fc1ccccc1N1CCN(c2nc3ccccc3c3nc(-c4ccccc4)nn23)CC1 -5.27%
Cc1ccc(N2CC(C(=O)Nc3ccc(N(C)C)cc3)CC2=O)cc1Cl (configuration not stated) -4.57%
CCN(CC)c1ccc(NC(=O)CCCN2C(=O)C(c3ccccc3)Oc3cccnc32)c(C)c1 (configuration not stated) 2.39%
O=C(NC1CCCC1)c1ccc2c(=O)n(Cc3ccccc3)c(SCc3cccc(F)c3)nc2c1 -11.5%
CCC(C(=O)N1CCN(c2ccccc2)CC1)n1c(C)c2cnn(-c3ccccc3)c(=O)c2c1C (configuration not stated) -15%
CCOc1cc(Cl)c(S(=O)(=O)n2ccnc2)cc1Cl -9.44%
Cc1nnc(N2CCC(C(=O)NCCC(C)C)CC2)c2nn(-c3ccc(Cl)cc3)c(C)c12 -12%
C=C(C)CSc1nc(-c2ccccc2)cc(-c2ccc(OC)cc2)c1C#N -17.7%
Cc1cc(C)n(C(C)CC(=O)Nc2ccc(C)c(N(C)C)c2)n1 (configuration not stated) -20.1%
COC(=O)c1ccc(NC(=O)CN2C(=O)CC(c3ccccc3)Sc3ccccc32)cc1 (configuration not stated) 1.34%
CC(=O)Nc1cccc(-n2cc3c(c2-c2ccccc2Cl)c(=O)n(C)c(=O)n3C)c1 -14.6%
O=C(CN1C(=O)c2cccnc2Oc2ccc(Cl)cc21)Nc1cccc(C(F)(F)F)c1 -6.23%
COc1ccc(C)cc1Nc1cc(C)nc(C)n1 -14.9%
CC(C)Oc1ccc(C(=O)Nc2c(C(=O)Nc3cccc(F)c3)oc3ccccc23)cc1 -10.2%
O=C(CCn1ccc2cc(S(=O)(=O)N3CCCC3)ccc21)NCc1ccccc1Br 19.2%
O=C(CSc1nc(-c2ccc(F)cc2)[nH]c1-c1ccc(F)cc1)Nc1ccc2c(c1)OCO2 -34.8%
O=C(Cc1ccc(-c2ccccc2)cc1)NCCS(=O)(=O)N1CCN(c2ccccc2)CC1 -16%
COc1cc(NC(=O)CSc2ccc(-c3ccccn3)nn2)cc(OC)c1 -12.8%
O=C(Cn1cc(S(=O)(=O)c2ccccc2)c(=O)c2cc(Cl)ccc21)Nc1ccc2c(c1)OCO2 -11.8%
O=C(NCCCN1CCOCC1)c1ccc2c(c1)N(Cc1cccc(Cl)c1)C(=O)c1ccccc1S2 -6.37%
Cc1cc(Nc2cccc(C(F)(F)F)c2)nc2ccc(NC(=O)c3cccc(Cl)c3)cc12 -5.36%
CCOc1cc(C(=O)NCC(c2ccc(N(C)C)cc2)N2CCOCC2)cc(OCC)c1OCC (configuration not stated) -3.95%
O=S(=O)(c1cccc2ccccc12)N1CCN(c2ccc(Cl)c(Cl)c2)CC1 -13.7%
COc1ccc(NC(C)=O)cc1NC(=O)CN1CCN(c2ccc(F)cc2)CC1 -3.36%
Cc1ccn2c(=O)cc(COc3cccc(NC(=O)Nc4cccc(Cl)c4C)c3)nc2c1 -3.25%
COc1ccccc1NC(=O)C1=C(C)Nc2nc3ccccc3n2C1c1cccc(OC)c1OC (configuration not stated) -27%
COc1ccc(-c2cc(C(F)(F)F)nc(SCC(=O)NCC(C)C)n2)cc1OC -27.2%
Cc1ccc(CNC(=O)c2ccc(CS(=O)Cc3cccc(Cl)c3)o2)cc1 (configuration not stated) -27.2%
Cc1ccc(-c2cn3c(n2)sc2cc(C(=O)NCCCc4ccccc4)ccc23)c(C)c1 -9.71%
CC1CCCN(S(=O)(=O)c2ccc3c(c2)c(=O)nc2ccccn23)C1 (configuration not stated) -12%
CCCCN(CCCNC(=O)c1cc(Nc2ccc(OC)c(OC)c2)nc2ccccc12)c1ccccc1 -9.31%
CCOc1ccc(CNCc2c(C(=O)O)c(C)n(Cc3c(F)cccc3Cl)c2C)cc1OC -6.7%
CC(CCc1ccccc1)NC(=O)Cn1c(=O)nc(-c2ccccc2)c2ccccc21 (configuration not stated) -1.73%
